Source: article PMC7819943, “Rice protein-binding microarrays: a tool to detect cis-acting elements near promoter regions in rice”
The list shows a part of the results.

target: T1, OsWOX13 (Oryza sativa, UniProt Q5QMM3 1-267); test: protein-binding microarray (RPBM); PBS, 2% BSA, 51.3 ng/ul salmon testes DNA, 50 uM zinc acetate, 200 nM TF, 25 C, 1 h; high values mean tight binding; details: protein: recombinant; tags: N-terminal polyhistidine and DsRed monomer fusion (pET32a); label: CyDye5-dUTP incorporated in the synthesized complementary strand; 3' TTTTT single-stranded linker to array surface; dsDNA, one strand shown
T1 sequence: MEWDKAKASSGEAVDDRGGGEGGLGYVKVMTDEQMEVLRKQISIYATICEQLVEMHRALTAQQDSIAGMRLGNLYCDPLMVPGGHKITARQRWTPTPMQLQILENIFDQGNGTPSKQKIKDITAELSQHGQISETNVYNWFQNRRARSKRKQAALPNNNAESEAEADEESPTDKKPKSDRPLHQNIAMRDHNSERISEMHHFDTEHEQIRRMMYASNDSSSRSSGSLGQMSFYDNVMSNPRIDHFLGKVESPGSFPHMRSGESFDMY
How it was run: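 The binding signal for each feature is its fluorescence intensity in arbitrary units. An Axon 4000B scanner was used to read a custom Agilent array that had been made double-stranded with Cy5-dUTP primer extension, blocked with 2% BSA, incubated at 25 °C for 1 h with 200 nM protein in PBS, 2% BSA, salmon testes DNA and 50 µM zinc acetate, and washed. The protein was an N-terminal polyhistidine–DsRed transcription factor fusion from E. coli BL21-CodonPlus, purified on Ni–NTA.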

Sequence	binding signal
GTTAGAGGTAATTAGATGTAAATTGAATGTGCAGTATAATCGGAGTCACCTAGTGCAG	30500 fluorescence intensity (a.u.)
ACTGTAATTTTAATTATATTATTGTTACACTATAATTGCACGGAGTCACCTAGTGCAG	41800 fluorescence intensity (a.u.)
ACTTTAATTACATTTCTTGCTGCAGTTGCACCGGCATGAGCGGAGTCACCTAGTGCAG	31600 fluorescence intensity (a.u.)
AATTGACAAAGATGAAACACATGTGGACTGGACTACTCGACGGAGTCACCTAGTGCAG	3660 fluorescence intensity (a.u.)
TGAGGAGCCATGATTACGGAGTAATTTCCATGGTCACAGTCGGAGTCACCTAGTGCAG	4070 fluorescence intensity (a.u.)
ATACAATTAATTATGGTATCTTTTCCATTAAATTATTACCCGGAGTCACCTAGTGCAG	14100 fluorescence intensity (a.u.)
GCAGTAATTTTGACGAAATTCGTTGAAGAATGATAGCGGTCGGAGTCACCTAGTGCAG	16400 fluorescence intensity (a.u.)
TAAATTACATATGTAATTTTAGTGTATTTACAATGTAAGTCGGAGTCACCTAGTGCAG	14700 fluorescence intensity (a.u.)
TATATGTCTAATAATTTAACGTTTTACAAATTAGATAAAACGGAGTCACCTAGTGCAG	7300 fluorescence intensity (a.u.)
TTGATAAACACCGGACACGCAAATTAATATTTGGTGCCGCCGGAGTCACCTAGTGCAG	3350 fluorescence intensity (a.u.)
TTTATAATTAATTTTCAAACATCCGATGTGATAGGAACTTCGGAGTCACCTAGTGCAG	38000 fluorescence intensity (a.u.)
CTAAATTAGTGTTTAAATACAGAGACTAAGAGCACCCGCACGGAGTCACCTAGTGCAG	18200 fluorescence intensity (a.u.)
AGAAGAAGCGGTGATTGCTAGCTAGCTAGCGAGCTCCGTCCGGAGTCACCTAGTGCAG	5170 fluorescence intensity (a.u.)
ATTTGTCTAGTACTCCTAATTGGTACATCGACGATCTGCGCGGAGTCACCTAGTGCAG	6670 fluorescence intensity (a.u.)
GATTATTACTAATCAATTTCACTAGTGTTAATGAAATATGCGGAGTCACCTAGTGCAG	12400 fluorescence intensity (a.u.)
GCTAATCAAATCCATCATGAGAGACACGCTCCGCTGGACTCGGAGTCACCTAGTGCAG	8880 fluorescence intensity (a.u.)
CTTTGATCAAACTTCAAACACCCACTATCATCCGTCATCCCGGAGTCACCTAGTGCAG	3950 fluorescence intensity (a.u.)
ATATAAATTAAGATTTTGAGGATACTGTTATTGAGATGGGCGGAGTCACCTAGTGCAG	9740 fluorescence intensity (a.u.)
GTGGTTGATTTGTTAGAGGTGGAGGCAGGTATTGTGGTGGCGGAGTCACCTAGTGCAG	33400 fluorescence intensity (a.u.)
TTGATTGCAGAGGATCCTGATCCGAAAATAACACACCCTACGGAGTCACCTAGTGCAG	10600 fluorescence intensity (a.u.)
TGAAAGCATCCGGTAATTGGCAACTTTGAATGCATCGTTTCGGAGTCACCTAGTGCAG	9690 fluorescence intensity (a.u.)

Sequence	binding signal
TAAAATTTATTCGAATTCTATCAACTTTCGTCGGTAACCGCGGAGTCACCTAGTGCAG	5270 fluorescence intensity (a.u.)
ATGCTTATTATCTCAATTAAAATCTGTCATTATGGGTGTGCGGAGTCACCTAGTGCAG	9600 fluorescence intensity (a.u.)
TATTAAGCTAATTAGTCATCTAATTAGCTTTTGTAAGGCCCGGAGTCACCTAGTGCAG	31000 fluorescence intensity (a.u.)
CAACTAATTTTAGGTAAGTTATTTTCACTTTGAGCTGGAGCGGAGTCACCTAGTGCAG	18000 fluorescence intensity (a.u.)
CCATTAATGACGAGAGGTTGGTGTCGTCTCACTCATTTATCGGAGTCACCTAGTGCAG	5490 fluorescence intensity (a.u.)
AAGTTAAACTATTTTAAATTTGATTAAGTTTATGTACAAACGGAGTCACCTAGTGCAG	12700 fluorescence intensity (a.u.)
AAGAGGGTGGGTTGTTGGGGAGAGGGGAGGGAGGAGGATTCGGAGTCACCTAGTGCAG	6960 fluorescence intensity (a.u.)
TTGTAAATTACCTGCAAGGAAGAATTAACCAAGATGTCTTCGGAGTCACCTAGTGCAG	5040 fluorescence intensity (a.u.)
TGACTGGATTTAGATAGACAAAGTGGAAGAATCGGATTGGCGGAGTCACCTAGTGCAG	9670 fluorescence intensity (a.u.)
TATATGATTATTAATTAGCCTTCCTGGGCAGTACCAATCTCGGAGTCACCTAGTGCAG	35000 fluorescence intensity (a.u.)
TTATCATTTGTTATCATTGATGAATGAGAAGCAGCAAAGTCGGAGTCACCTAGTGCAG	3610 fluorescence intensity (a.u.)
AGTCTAATAACAAAACAAATTATAGATTCCGCACGTAAATCGGAGTCACCTAGTGCAG	4800 fluorescence intensity (a.u.)
CAAATCATGACTAGATTAGTAACCAAAAGCCATTGCAGCACGGAGTCACCTAGTGCAG	15000 fluorescence intensity (a.u.)
TAGATAATAGATCATATTGATTTCTACTTTTATAGTATAGCGGAGTCACCTAGTGCAG	21600 fluorescence intensity (a.u.)
AGGAATTGAATACAAATGATAGGTTGTGGTTCCGTCACGACGGAGTCACCTAGTGCAG	16700 fluorescence intensity (a.u.)
ATAACACTGACAGGTAGATGTTACTCAAGACATTTCCGCACGGAGTCACCTAGTGCAG	13300 fluorescence intensity (a.u.)
CTTGGATTAATTTACGCCATAAAATTCCACAGAAATAACTCGGAGTCACCTAGTGCAG	17100 fluorescence intensity (a.u.)
CTAAACTAATAAAGAGAGATTTACGTATGCATAGTATTCTCGGAGTCACCTAGTGCAG	5730 fluorescence intensity (a.u.)
AGAGTTAATTTGGAAAGGGATAGTTTTGAGTGCTTATGGGCGGAGTCACCTAGTGCAG	12600 fluorescence intensity (a.u.)
AATTTGATTGATTTTACTCTCGAGCCAATTGAGATGTCTGCGGAGTCACCTAGTGCAG	64800 fluorescence intensity (a.u.)
TGTAAGGGCAAGCTAATTGACTGACAGCTTTTAGTTCACACGGAGTCACCTAGTGCAG	21100 fluorescence intensity (a.u.)
